Experimental data as given in patent US20220324876A1, “4-SUBSTITUTED PYRANO[3,4,b]PYRAZINE KAPPA AGONISTS FOR TREATING DRUG DEPENDENCY” (The Rockefeller University, priority 2019, published 2022).

The compounds below were run against kappa opioid receptor (KOP-R, hOPRK1) (Homo sapiens, UniProt P41145) (assay: biochemical). Conditions: not given.
Chain of UniProt P41145 (P41145 whole entry): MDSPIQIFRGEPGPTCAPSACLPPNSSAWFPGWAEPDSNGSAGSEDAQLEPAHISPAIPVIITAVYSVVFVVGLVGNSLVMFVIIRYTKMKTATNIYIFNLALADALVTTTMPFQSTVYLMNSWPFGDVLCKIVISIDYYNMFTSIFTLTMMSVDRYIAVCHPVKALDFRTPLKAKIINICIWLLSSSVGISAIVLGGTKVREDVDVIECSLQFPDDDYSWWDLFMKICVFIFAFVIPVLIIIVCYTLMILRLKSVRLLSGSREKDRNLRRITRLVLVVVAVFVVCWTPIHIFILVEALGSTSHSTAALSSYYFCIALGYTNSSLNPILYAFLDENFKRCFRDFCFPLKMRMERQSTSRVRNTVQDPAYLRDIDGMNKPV

How did the IC50 turn out when `Cn1ccc(CN2CCN(C(=O)Cc3ccc(Cl)c(Cl)c3)[C@H]3[C@H]2COC[C@@H]3N2CCCC2)n1` (single isomer, unassigned) [Example 5A135A] was run?
The IC50 was 123 nM.

For `O=C(O)CN1CCN(C(=O)Cc2ccc(Cl)c(Cl)c2)[C@H]2[C@H]1COC[C@@H]2N1CCCC1` (racemic) [rac-5A88], which IC50 is on record?
The IC50 was 2000 nM.

Which IC50 does the source give for `Cn1cc(CN2CCN(C(=O)Cc3ccc(Cl)c(Cl)c3)[C@H]3[C@H]2COC[C@@H]3N2CCCC2)cn1` (racemic) [rac-5A79] here?
The IC50 was 177 nM.

For `O=C(Cc1ccc(Cl)c(Cl)c1)N1CCN(C(=O)C2(O)CCOC2)[C@@H]2COC[C@H](N3CCCC3)[C@H]21` (single isomer, unassigned) [Example 5A139A], which IC50 is on record?
Its IC50 is 310 nM.

With `O=C(Cc1ccc(Cl)c(Cl)c1)N1CCN(C(=O)c2cnoc2)[C@@H]2COC[C@H](N3CCCC3)[C@H]21` (racemic) [rac-5A124] as the compound, how does the IC50 read?
Its IC50 is 433 nM.

With `O=C(Cc1ccc(Cl)c(Cl)c1)N1CCN(CC2CCOCC2)[C@@H]2COC[C@H](N3CCCC3)[C@H]21` (racemic) [rac-5A84] as the compound, how does the IC50 read?
Its IC50 is 423 nM.

`O=C(Cc1ccc(Cl)c(Cl)c1)N1CCN(C(=O)C2(O)CCOC2)[C@H]2COC[C@@H](N3CCCC3)[C@@H]21` (single isomer, unassigned) [Example 5A139B] was tested. Which IC50 did it give?
The IC50 was 1700 nM.

How did the IC50 turn out when `O=C(Cc1ccc(Cl)c(Cl)c1)N1CCN(CC2CCS(=O)(=O)CC2)[C@@H]2COC[C@H](N3CCCC3)[C@H]21` (racemic) [rac-5A85] was run?
The IC50 was 1070 nM.

With `Cn1ccc(CN2CCN(C(=O)Cc3ccc(Cl)c(Cl)c3)[C@H]3[C@H](N4CCCC4)COC[C@@H]32)n1` (single isomer, unassigned) [Example 5A135B] as the compound, how does the IC50 read?
Its IC50 is 123 nM.

Same assay, conditions: Binding IC50 (nM), Table D; 1.0 nM [3H]U69,593, 60 min 30° C.

How did the IC50 turn out when `O=C(Cc1ccc(Cl)c(Cl)c1)N1CCN(Cc2ccccn2)[C@@H]2COC[C@H](N3CCCC3)[C@H]21` (racemic) [rac-5A80] was run?
Its IC50 is 67 nM.

For `NC(=O)CN1CCN(C(=O)Cc2ccc(Cl)c(Cl)c2)[C@H]2[C@H]1COC[C@@H]2N1CCCC1` (racemic) [rac-5A102], which IC50 is on record?
The IC50 was 90 nM.

Which IC50 does the source give for `O=C(Cc1ccc(Cl)c(Cl)c1)N1CCN(C(=O)CO)[C@H]2COC[C@@H](N3CCCC3)[C@@H]21` (single isomer, unassigned) [Example 5A95B] here?
Its IC50 is 308 nM.

Which IC50 does the source give for `O=C(Cc1ccc(Cl)c(Cl)c1)N1CCN(CC2COC2)[C@@H]2COC[C@H](N3CCCC3)[C@H]21` (single isomer, unassigned) [Example 5A83A] here?
Its IC50 is 117 nM.

`O=C(Cc1ccc(Cl)c(Cl)c1)N1CCN(CC2CCCO2)[C@@H]2COC[C@H](N3CCCC3)[C@H]21` (single isomer, unassigned) [Example 5A138A] was tested. Which IC50 did it give?
The IC50 was 101 nM.

With `O=C(Cc1ccc(Cl)c(Cl)c1)N1CCN(Cc2ccon2)[C@@H]2COC[C@H](N3CCCC3)[C@H]21` [Example 5A86A] as the compound, how does the IC50 read?
Its IC50 is 1.7 nM.

With `Cc1noc(CN2CCN(C(=O)Cc3ccc(Cl)c(Cl)c3)[C@H]3[C@H]2COC[C@@H]3N2CCCC2)n1` (racemic) [rac-5A105] as the compound, how does the IC50 read?
The IC50 was 37 nM.

With `N#CCN1CCN(C(=O)Cc2ccc(Cl)c(Cl)c2)[C@H]2[C@H]1COC[C@@H]2N1CCCC1` (racemic) [rac-5A87] as the compound, how does the IC50 read?
The IC50 was 16 nM.

With `O=C(CN1CCN(C(=O)Cc2ccc(Cl)c(Cl)c2)[C@H]2[C@H]1COC[C@@H]2N1CCCC1)N1CCCC1` (racemic) [rac-5A113] as the compound, how does the IC50 read?
Its IC50 is 198 nM.

Which IC50 does the source give for `O=C(Cc1ccc(Cl)c(Cl)c1)N1CCN(CCCO)[C@@H]2COC[C@H](N3CCCC3)[C@H]21` (racemic) [rac-5A75] here?
Its IC50 is 60 nM.

Which IC50 does the source give for `CC(F)(F)CN1CCN(C(=O)Cc2ccc(Cl)c(Cl)c2)[C@H]2[C@H](N3CCCC3)COC[C@@H]21` [Example 5A127B] here?
The IC50 was 20 nM.

`COCCS(=O)(=O)N1CCN(C(=O)Cc2ccc(Cl)c(Cl)c2)[C@H]2[C@H](N3CCCC3)COC[C@@H]21` (single isomer, unassigned) [Example 5A146B] was tested. Which IC50 did it give?
Its IC50 is 17 nM.

How did the IC50 turn out when `O=C(Cc1ccc(Cl)c(Cl)c1)N1CCN(C(=O)C2(O)CCCC2)[C@H]2COC[C@@H](N3CCCC3)[C@@H]21` (single isomer, unassigned) [Example 5A125B] was run?
Its IC50 is 53 nM.

For `O=C(Cc1ccc(Cl)c(Cl)c1)N1CCN(Cc2cccnc2)[C@@H]2COC[C@H](N3CCCC3)[C@H]21` (racemic) [rac-5A81], which IC50 is on record?
The IC50 was 18.7 nM.

With `O=C(Cc1ccc(Cl)c(Cl)c1)N1CCN(CCO)[C@H]2COC[C@@H](N3CCCC3)[C@@H]21` (single isomer, unassigned) [Example 5A74B] as the compound, how does the IC50 read?
The IC50 was 13 nM.

Which IC50 does the source give for `CN(C)S(=O)(=O)N1CCN(C(=O)Cc2ccc(Cl)c(Cl)c2)[C@H]2[C@H](N3CCCC3)COC[C@@H]21` (single isomer, unassigned) [Example 5A56B] here?
Its IC50 is 113 nM.

For `O=C(Cc1ccc(Cl)c(Cl)c1)N1CCN(CC2CCCO2)[C@H]2COC[C@@H](N3CCCC3)[C@@H]21` (single isomer, unassigned) [Example 5A138D], which IC50 is on record?
The IC50 was 87 nM.

With `O=C(Cc1ccc(Cl)c(Cl)c1)N1CCN(C(=O)C2(O)CC2)[C@@H]2COC[C@H](N3CCCC3)[C@H]21` (single isomer, unassigned) [Example 5A126A] as the compound, how does the IC50 read?
Its IC50 is 27 nM.

With `O=C(Cc1ccc(Cl)c(Cl)c1)N1CCN(C(=O)C2(O)CC2)[C@H]2COC[C@@H](N3CCCC3)[C@@H]21` (single isomer, unassigned) [Example 5A126B] as the compound, how does the IC50 read?
The IC50 was 28 nM.

`O=C(Cc1ccc(Cl)c(Cl)c1)N1CCN(CC2COC2)[C@H]2COC[C@@H](N3CCCC3)[C@@H]21` (single isomer, unassigned) [Example 5A83B] was tested. Which IC50 did it give?
The IC50 was 10 nM.

With `O=C(Cc1ccc(Cl)c(Cl)c1)N1CCN(C(=O)c2cn[nH]c2)[C@@H]2COC[C@H](N3CCCC3)[C@H]21` (racemic) [rac-5A123] as the compound, how does the IC50 read?
The IC50 was 159 nM.

`O=C(Cc1ccc(Cl)c(Cl)c1)N1CCN(S(=O)(=O)CCO)[C@H]2COC[C@@H](N3CCCC3)[C@@H]21` (single isomer, unassigned) [Example 5A140B] was tested. Which IC50 did it give?
The IC50 was 17 nM.

For `CC(O)CN1CCN(C(=O)Cc2ccc(Cl)c(Cl)c2)[C@H]2[C@H]1COC[C@@H]2N1CCCC1` (some centres unmarked) [Example 5A89], which IC50 is on record?
The IC50 was 14 nM.

`O=C(Cc1ccc(Cl)c(Cl)c1)N1CCN(CCC2COC2)[C@@H]2COC[C@H](N3CCCC3)[C@H]21` (single isomer, unassigned) [Example 5A142A] was tested. Which IC50 did it give?
The IC50 was 88 nM.

`O=C(Cc1ccc(Cl)c(Cl)c1)N1CCN(CC(O)c2ccon2)[C@@H]2COC[C@H](N3CCCC3)[C@H]21` (some centres unmarked) [Example 5A137] was tested. Which IC50 did it give?
The IC50 was 9.4 nM.

Which IC50 does the source give for `O=C(Cc1ccc(Cl)c(Cl)c1)N1CCN(C(=O)CO)[C@@H]2COC[C@H](N3CCCC3)[C@H]21` (single isomer, unassigned) [Example 5A95A] here?
The IC50 was 46 nM.

With `COCCS(=O)(=O)N1CCN(C(=O)Cc2ccc(Cl)c(Cl)c2)[C@H]2[C@H]1COC[C@@H]2N1CCCC1` (single isomer, unassigned) [Example 5A146A] as the compound, how does the IC50 read?
Its IC50 is 42 nM.

Which IC50 does the source give for `O=C(Cc1ccc(Cl)c(Cl)c1)N1CCN(CC2CCCO2)[C@H]2COC[C@@H](N3CCCC3)[C@@H]21` (single isomer, unassigned) [Example 5A138B] here?
Its IC50 is 73 nM.

How did the IC50 turn out when `Cn1nccc1CN1CCN(C(=O)Cc2ccc(Cl)c(Cl)c2)[C@H]2[C@H]1COC[C@@H]2N1CCCC1` (racemic) [rac-5A104] was run?
Its IC50 is 78 nM.

With `O=C(Cc1ccc(Cl)c(Cl)c1)N1CCN(CC2CCOC2)[C@@H]2COC[C@H](N3CCCC3)[C@H]21` (some centres unmarked) [Example 5A93] as the compound, how does the IC50 read?
Its IC50 is 110 nM.

How did the IC50 turn out when `CN(C)S(=O)(=O)N1CCN(C(=O)Cc2ccc(Cl)c(Cl)c2)[C@H]2[C@H]1COC[C@@H]2N1CCCC1` (single isomer, unassigned) [Example 5A56A] was run?
The IC50 was 7.2 nM.

For `O=C(Cc1ccc(Cl)c(Cl)c1)N1CCN(Cc2ccc(F)cc2)[C@@H]2COC[C@H](N3CCCC3)[C@H]21` (single isomer, unassigned) [Example 5A136A], which IC50 is on record?
The IC50 was 24 nM.

Which IC50 does the source give for `O=C(Cc1ccc(Cl)c(Cl)c1)N1CCN(CCO)[C@@H]2COC[C@H](N3CCCC3)[C@H]21` (single isomer, unassigned) [Example 5A74A] here?
Its IC50 is 15 nM.

How did the IC50 turn out when `O=C(Cc1ccc(Cl)c(Cl)c1)N1CCN(Cc2cn[nH]c2)[C@@H]2COC[C@H](N3CCCC3)[C@H]21` (racemic) [rac-5A107] was run?
Its IC50 is 11 nM.

With `O=C(Cc1ccc(Cl)c(Cl)c1)N1CCN(Cc2cccc(F)c2)[C@@H]2COC[C@H](N3CCCC3)[C@H]21` (single isomer, unassigned) [Example 5A145A] as the compound, how does the IC50 read?
The IC50 was 23 nM.

For `COCCN1CCN(C(=O)Cc2ccc(Cl)c(Cl)c2)[C@H]2[C@H]1COC[C@@H]2N1CCCC1` (single isomer, unassigned) [Example 5A141A], which IC50 is on record?
Its IC50 is 90 nM.

Which IC50 does the source give for `CC(C)(O)C(=O)N1CCN(C(=O)Cc2ccc(Cl)c(Cl)c2)[C@H]2[C@H](N3CCCC3)COC[C@@H]21` [Example 5A96B] here?
The IC50 was 63 nM.

Which IC50 does the source give for `O=C(Cc1ccc(Cl)c(Cl)c1)N1CCN(Cc2cccc(F)c2)[C@H]2COC[C@@H](N3CCCC3)[C@@H]21` (single isomer, unassigned) [Example 5A145B] here?
The IC50 was 59 nM.

How did the IC50 turn out when `O=C(Cc1ccc(Cl)c(Cl)c1)N1CCN(Cc2ccn[nH]2)[C@@H]2COC[C@H](N3CCCC3)[C@H]21` (racemic) [rac-5A108] was run?
The IC50 was 16 nM.

With `O=C(Cc1ccc(Cl)c(Cl)c1)N1CCN(Cc2ccc(F)cc2)[C@H]2COC[C@@H](N3CCCC3)[C@@H]21` (single isomer, unassigned) [Example 5A136B] as the compound, how does the IC50 read?
The IC50 was 6.9 nM.

`CC(C)(O)C(=O)N1CCN(C(=O)Cc2ccc(Cl)c(Cl)c2)[C@H]2[C@H]1COC[C@@H]2N1CCCC1` [Example 5A96A] was tested. Which IC50 did it give?
The IC50 was 31 nM.

For `O=C(Cc1ccc(Cl)c(Cl)c1)N1CCN(C(=O)c2ccno2)[C@@H]2COC[C@H](N3CCCC3)[C@H]21` (racemic) [rac-5A121], which IC50 is on record?
Its IC50 is 34 nM.

With `O=C(Cc1ccc(Cl)c(Cl)c1)N1CCN(S(=O)(=O)CCO)[C@@H]2COC[C@H](N3CCCC3)[C@H]21` (single isomer, unassigned) [Example 5A140A] as the compound, how does the IC50 read?
Its IC50 is 9.5 nM.

For `O=C(Cc1ccc(Cl)c(Cl)c1)N1CCN(C(=O)C2(O)CCCC2)[C@@H]2COC[C@H](N3CCCC3)[C@H]21` (single isomer, unassigned) [Example 5A125A], which IC50 is on record?
Its IC50 is 258 nM.
